# Reference: the supplement of paper PMC6746778
# Where a name gives a salt, the structure may show the parent alone. The list shows a part of the results. Repeats are few or missing, and single values can be far off.
# Assays:
# Test in all cases: proliferation Z-score within cell line (SRB, relative to all inhibitors screened on that line); triple-negative breast cancer lines and a kinase inhibitor library; SRB is the sulforhodamine B protein stain; higher = less growth inhibition (more resistant)
# Settings in all cases: concentration: 1 µM; 4 days
# Bt20 = system: Bt20
# Bt549 = system: Bt549
# HCC1143 = system: HCC1143
# HCC1806 = system: HCC1806
# HCC1937 = system: HCC1937
# HCC38 = system: HCC38
# HCC70 = system: HCC70
# Hs578T = system: Hs578T
# MDA-MB-231 = system: MDA-MB-231
# MDA-MB-435s = system: MDA-MB-435s
# MDA-MB-436 = system: MDA-MB-436
# MDA-MB-453 = system: MDA-MB-453
# MDA-MB-468 = system: MDA-MB-468
# SKBR7 = system: SKBR7
# SUM1315MO2 = system: SUM1315MO2
# SUM149PT = system: SUM149PT
# SUM159PT = system: SUM159PT
# SUM185PE = system: SUM185PE
# SUM229PE = system: SUM229PE
# SUM52PE = system: SUM52PE
# 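Note: Single-dose primary screen of a 378-member kinase inhibitor library in 96-well plates, with growth read as absorbance of protein-bound SRB dye after TCA fixation.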
Compound,proliferation Z-score within cell line (Bt20),proliferation Z-score within cell line (Bt549),proliferation Z-score within cell line (HCC1143),proliferation Z-score within cell line (HCC1806),proliferation Z-score within cell line (HCC1937),proliferation Z-score within cell line (HCC38),proliferation Z-score within cell line (HCC70),proliferation Z-score within cell line (Hs578T),proliferation Z-score within cell line (MDA-MB-231),proliferation Z-score within cell line (MDA-MB-435s),proliferation Z-score within cell line (MDA-MB-436),proliferation Z-score within cell line (MDA-MB-453),proliferation Z-score within cell line (MDA-MB-468),proliferation Z-score within cell line (SKBR7),proliferation Z-score within cell line (SUM1315MO2),proliferation Z-score within cell line (SUM149PT),proliferation Z-score within cell line (SUM159PT),proliferation Z-score within cell line (SUM185PE),proliferation Z-score within cell line (SUM229PE),proliferation Z-score within cell line (SUM52PE)
CCc1nc(-c2cccc(C)c2)c(-c2ccnc(NC(=O)c3ccccc3)c2)s1,0.104,0.479,0.294,0.311,0.24,0.312,0.154,0.367,0.413,0.442,0.366,0.381,0.188,-0.599,0.307,-0.0886,0.169,0.471,0.329,0.308
CCCCCCCCc1ccc(CCC(N)(CO)CO)cc1 [Fingolimod (FTY720) HCl],0.824,0.754,0.476,0.534,0.749,0.506,0.57,0.65,0.244,0.841,0.718,0.595,1,0.241,0.797,0.658,0.485,1.09,1.02,0.757
O=C1c2ccccc2-c2n[nH]c3cccc1c23,0.667,0.474,-0.648,0.523,-1.94,0.545,-1.89,0.626,0.771,0.727,-1.84,0.717,0.354,0.305,0.812,0.657,-1.15,0.301,0.475,0.875
COc1ccc(-c2nc(N3CCOCC3)c3sc(CN(C)c4ncc(C(=O)NO)cn4)cc3n2)cn1,-2.05,-1.81,-1.92,-1.99,-1.55,-2.4,-1.03,-2.16,-1.69,-1.82,-1.84,-1.55,-1.55,-1.78,-1.97,-2.04,-2.29,-1.6,-1.97,-1.19
Cn1cc(C2=C(c3cn(CCCSC(=N)N)c4ccccc34)C(=O)NC2=O)c2ccccc21 [Ro 31-8220 Mesylate],0.376,-0.685,0.534,0.665,0.657,0.558,-0.427,0.289,-0.693,-0.492,-1.77,-0.551,-1.48,0.329,1.02,0.611,0.415,1.23,-0.065,0.499
C=CC(=O)Nc1cccc(Nc2nc(Nc3ccc(Oc4ccnc(C(=O)NC)c4)cc3)ncc2F)c1,0.563,0.0113,0.61,0.727,0.578,0.533,0.62,0.504,0.437,0.592,0.555,0.839,0.156,0.669,-0.112,0.299,0.525,-0.0124,0.184,-0.0455
COc1cc(Nc2ncc(F)c(Nc3ccc4c(n3)NC(=O)C(C)(C)O4)n2)cc(OC)c1OC,0.404,0.645,0.655,0.451,0.375,0.435,0.644,0.303,-0.114,-0.0509,0.84,0.749,0.186,0.585,-1.41,-0.154,0.532,-1.13,0.365,-1.42
CNc1nc(Nc2cn(C(C)(C)C#N)nc2C)ncc1C(F)(F)F,-0.434,0.419,0.131,0.779,0.246,0.286,0.258,-0.135,0.515,0.334,-0.155,0.392,0.445,-0.588,-0.0921,0.246,-0.0928,-0.531,-0.493,-0.236
Cc1cc(C)c(/C=C2\C(=O)Nc3ccccc32)[nH]1 [Semaxanib (SU5416)],1.01,0.655,0.765,1.09,0.866,0.584,0.825,0.56,0.889,0.924,0.706,0.565,0.894,1.02,0.525,0.922,0.571,0.999,1.06,1.22
Cc1nc(N)sc1-c1ccnc(Nc2ccc(N3CCOCC3)cc2)n1,-1.52,0.426,1.43,0.37,1.01,0.438,0.951,0.499,-1.27,-0.724,1.3,-0.251,-1.83,0.221,-1.13,-0.641,0.563,-0.861,-0.391,-0.417
O=C(NOC[C@H](O)CO)c1ccc(F)c(F)c1Nc1ccc(I)cc1F,0.0724,-0.218,-0.698,-1.84,0.399,-0.731,-0.136,-1.18,-2.11,-2.01,0.179,-1.39,-0.646,0.0511,-0.33,-2.75,0.157,-0.281,-2.43,-1.16
Cc1nc(NC(=O)N2CCC[C@H]2C(N)=O)sc1-c1csc(C(C)(C)C)n1,0.187,0.592,0.265,-0.435,0.57,0.666,0.746,0.558,0.815,0.565,0.879,-0.643,1.13,0.518,0.852,1.03,0.245,-0.936,0.472,1.13
Cc1ccc(-c2nn(C(C)(C)C)c3ncnc(N)c23)cc1,0.261,0.712,0.813,0.352,0.624,0.491,0.655,0.618,0.587,0.585,0.966,1.09,1.01,0.824,0.489,0.734,0.579,1.46,0.887,0.861
